PubChem BioAssay AID1645887 (National Center for Advancing Translational Sciences (NCATS), 2021)
Values joined by “and” are separate entries in the source; they are usually repeats but may differ in a detail not shown here. Identical values can stand only once. In all, about 16,000 compounds went through this assay and about 40 (0.2%) were called active. Roughly 1% stayed inconclusive and do not appear here. Calls come from the whole dose curve; as a rule, active = well fitted activation curve with a large enough effect; inconclusive = small, poorly fitted or top-dose-only effect, or another doubt; inactive = no such curve, though single readings can be large or run the other way. This is one part of the list.

Biological target: Rap guanine nucleotide exchange factor 4 (Homo sapiens) (UniProt Q8WZA2)
Assay: Validation qHTS for agonist of cAMP-regulated guanine nucleotide exchange factor 4 (EPAC2);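 note: exchange makes BODIPY-GDP fluorescence drop when released from Rap1B; series mostly up to about 150 µM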
Settings: EPAC2 Rap1B BODIPY-GDP exchange, fluorescence; activation: active compounds read high
Description: Principle Investigator: Xiaodong Cheng Ph.D.
The University of Texas Medical Branch, […], TX
In multi-cellular eukaryotic organisms, the effects of cAMP are transduced by two ubiquitously-expressed intracellular cAMP receptors, the classic protein kinase A/cAMP-dependent protein kinase (PKA/cAPK) and the more recently discovered exchange protein directly activated by cAMP/cAMP-regulated guanine nucleotide exchange factor (EPAC/cAMP-GEF). Both PKA and EPAC are ubiquitously expressed in all tissues, and an increase in intracellular cAMP levels will lead to the activation of both PKA and EPAC. Therefore, careful dissections of the individual role and relative contribution of EPAC and PKA within the overall cAMP signaling in various model systems are critical for further elucidating the mechanism of cAMP signaling. To date no EPAC-specific antagonists and agonist, as well as isoform-specific agonists have been reported, and developing EPAC-specific pharmacological probes to determine the physiological functions that EPAC play in the overall cAMP-mediated signaling remains a major challenge within the research field. Furthermore, identified regulators of EPAC may lead to new mechanism-based therapeutic strategies specifically targeting the EPAC / cAMP-signaling components as EPAC has been implicated to play important roles in major human pathological conditions such as diabetes, heart disease, and cancer.
This qHTS will be used to screen the Molecular Libraries Small Molecule Repository (MLSMR) as a concentration-titration series using the NCGC unique quantitative screening (qHTS) platform to find activators for EPAC1. In addition, this assay will also be used as a counterscreen for the EPAC2 qHTS. This fluorescent based assay is developed and validated for EPAC1 that measures exchange using EPAC effector Rap1 complex with BODIPY-GDP, a GDP analog with a tethered fluorophores. Activators are identified by monitoring the change in fluorescence signal as the exchanged free BODIPY-GDP has a reduced fluorescence compared to Rap1-bound BODIPY-GDP. Increase in signal (activation) is the desired outcome for the EPAC1 agonist while no activity in this assay is desired for the EPAC2 agonist counterscreen.
[1] de Rooij, J., Zwartkruis, F. J., Verheijen, M. H., Cool, R. H., Nijman, S. M., Wittinghofer, A., and Bos, J.L. (1998) Nature 396, 474-477.
Briefly, three uL of reagents (100 nM EPAC2, 250 nM RAP1B-BODIPY-GDP, 50 uM GDP) were dispensed into a 1536-well Greiner black solid-bottom medium binding assay plate. Controls and test compounds (23 nL) were transferred to the plate via a Kalypsys pin tool equipped with a 1536-pin array. The plates were centrifuged at 1,000 rpm for 15 seconds followed by 5 minute incubation at room temperature. The assay plates were read at 5 minute intervals for 30 minutes in the ViewLux plate reader using 480nm excitation and 540nm emission filters. The results were normalized to the agonist positive control of 6.5 mM cAMP.
% is set by controls: 0 for no effect and ±100 for the full control effect.

UniProt Q8WZA2, sequence (Q8WZA2 whole entry, looked up): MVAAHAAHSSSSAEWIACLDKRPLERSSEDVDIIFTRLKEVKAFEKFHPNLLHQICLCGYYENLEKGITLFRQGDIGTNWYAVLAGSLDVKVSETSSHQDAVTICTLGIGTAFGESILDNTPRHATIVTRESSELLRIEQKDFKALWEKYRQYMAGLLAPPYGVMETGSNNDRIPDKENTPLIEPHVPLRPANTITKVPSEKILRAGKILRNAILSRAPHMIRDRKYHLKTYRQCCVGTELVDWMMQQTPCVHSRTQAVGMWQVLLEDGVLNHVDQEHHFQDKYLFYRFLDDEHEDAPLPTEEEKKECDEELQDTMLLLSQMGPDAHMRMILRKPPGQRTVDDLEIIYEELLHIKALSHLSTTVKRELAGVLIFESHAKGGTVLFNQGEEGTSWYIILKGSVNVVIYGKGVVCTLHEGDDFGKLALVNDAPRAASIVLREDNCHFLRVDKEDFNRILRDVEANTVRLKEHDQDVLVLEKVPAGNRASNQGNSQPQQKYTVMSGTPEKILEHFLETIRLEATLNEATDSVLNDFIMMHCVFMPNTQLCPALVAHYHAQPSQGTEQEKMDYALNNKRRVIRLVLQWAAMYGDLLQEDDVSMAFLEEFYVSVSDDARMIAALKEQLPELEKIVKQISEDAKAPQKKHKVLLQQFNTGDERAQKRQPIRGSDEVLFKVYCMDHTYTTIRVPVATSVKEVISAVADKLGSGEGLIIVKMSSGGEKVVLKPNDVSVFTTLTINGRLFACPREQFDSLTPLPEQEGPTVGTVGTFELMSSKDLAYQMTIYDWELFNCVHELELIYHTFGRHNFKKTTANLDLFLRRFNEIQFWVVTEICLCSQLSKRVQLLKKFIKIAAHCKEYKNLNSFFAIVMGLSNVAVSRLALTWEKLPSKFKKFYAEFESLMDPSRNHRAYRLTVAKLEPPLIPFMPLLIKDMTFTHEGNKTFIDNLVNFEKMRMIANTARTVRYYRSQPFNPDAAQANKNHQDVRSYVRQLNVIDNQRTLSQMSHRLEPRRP

activation, inactive:
CC(C)(c1ccc(O)cc1)c1ccc(O)cc1 -24.3%
CCn1c(-c2ccccc2F)nc2cc(NC(C)=O)cc(C(=O)N3CCNC(=O)C3CC(=O)OC)c21 (configuration not stated) -2.82%
CCCCCCc1ccc(O)cc1O -62.2% and -49.8%
CCN1C(=O)CC(CC(=O)N2CCCCC2c2nccs2)(c2ccccc2C)C1=O (configuration not stated) -19.4%
NC(Cc1ccc(O)c(O)c1)C(=O)O (configuration not stated) -18.3%
Cc1cc(O)c2c(c1)O[C@@]1(C)CC[C@H]3C(C)(C)CCCC34CO[C@@H]2[C@H]41 (some centres not stated) -4.67%
NC(=O)CC[C@@H]1NC(=O)[C@H](Cc2ccccc2)NC(=O)[C@H](Cc2ccc(O)cc2)NC(=O)CCSSC[C@@H](C(=O)N2CCC[C@H]2C(=O)N[C@@H](CCCN=C(N)N)C(=O)NCC(N)=O)NC(=O)[C@H](CC(N)=O)NC1=O 0.824% and -5.97%
COc1ccccc1-c1ccnc(-n2ncc(C(=O)NCc3ccncc3)c2C)n1 -3.23%
NCC[C@H](O)C(=O)N[C@@H]1C[C@H](N)[C@@H](O[C@H]2O[C@H](CN)CC[C@H]2N)[C@H](O)[C@H]1O[C@H]1O[C@H](CO)[C@@H](O)[C@H](N)[C@H]1O -0.654%
O=Cc1ccccc1-c1cn(CN2C(=O)c3ccccc3C2=O)nn1 -2.2%
COc1ccc(NC(=O)N2CCCC3(CCN(S(=O)(=O)c4ccccc4)CC3)C2)cc1 -20.4%
COC(=O)C(CN)c1c[nH]c2ccc(OC)cc12 (configuration not stated) 1.26%
CCC1(C2CCN(C(=O)c3cc(C)cc(C)c3)CC2)NC(=O)N(CCc2scnc2C)C1=O (configuration not stated) -11.7%
O=C(c1ccncc1)N1CCC2(CC1)CN(c1ccccc1)C2 -2.58%
COC(=O)[C@@H]1[C@H]2C[C@H]3c4[nH]c5ccccc5c4CCN3C[C@@H]2CC[C@@H]1O -15% and -8.63%
C[C@]12C=CC(=O)C=C1CC[C@@H]1[C@@H]2[C@@H](O)C[C@@]2(C)[C@H]1CC[C@]2(O)C(=O)COC(=O)CCC(=O)O -1.2%
Cc1cnc(SCCN2CCOCC2)nc1C1CCCN(C(=O)c2cccc3c(C)c(C)[nH]c23)C1 (configuration not stated) -5.56%
CCC(C)n1ncn(-c2ccc(N3CCN(c4ccc(OC[C@H]5CO[C@](Cn6cncn6)(c6ccc(Cl)cc6Cl)O5)cc4)CC3)cc2)c1=O (some centres not stated) -3.7%
COc1ccc(-n2c(=O)c(CCc3ccccc3)nc3cnc(N(C)C)nc32)cc1 -0.998%
COc1ccc(-c2nc3cnc(Nc4ccccc4)nc3n(CCC#N)c2=O)cc1 -2.2%
O=C(NCCc1ccncc1)c1cnn(-c2ncc3c(n2)-c2ccccc2CCC3)c1C1CC1 -15.1%
CC(C)=CCC/C(C)=C\COc1c2ccoc2cc2oc(=O)ccc12 3.16%
COc1cc(C(=O)Oc2ccc3c(OC)c4ccoc4nc3c2OC)cc(OC)c1OC -20.4%
COC(=O)CC1[C@@]2(C)C[C@]34OC5(C)OC6(C7CC(=O)OC(c8ccoc8)[C@]7(C)CCC6(O5)[C@]13C)C(OC(C)=O)[C@]4(OC(C)=O)C2OC(C)=O (some centres not stated) -12.5%
COc1ccc(NC(=O)N2CC[C@@]3(CCCN(C(=O)c4ccc(OC)cc4)C3)C2)cc1 -18.7%
COc1ccc2[nH]cc(CCO)c2c1 2.46%
CC/C=C\C/C=C\C/C=C\C/C=C\C/C=C\CCCCCC(=O)O 11.6%
COc1ccc(C(=O)N2CCC[C@@]3(CCN(C(=O)Nc4ccccc4)C3)C2)cc1 -6.84%
CC(C)NCC(O)COc1cccc2ccccc12 (configuration not stated) -9.13% and -12.6% and -4.62%
CCC1(C2CCN(C(=O)c3ccccc3C(C)=O)CC2)NC(=O)N(CCc2scnc2C)C1=O (configuration not stated) -9.73%
COc1cccc(CNc2ccc3nc(-c4ccc(N)cc4)c(OC)n3n2)c1 -10.4% and -13.4%
CC(=O)N1CCC[C@@]2(CCN(c3ccccc3)C2)C1 -20.5%
COC(=O)N1CCC[C@@]2(CCN(C(=O)Nc3cccc(F)c3)C2)C1 -3.1%
O=C(Nc1cccc(F)c1)N1CC[C@@]2(CCCN(S(=O)(=O)c3ccccc3)C2)C1 -9.33%
CC(=O)Nc1ccccc1-c1nc(CNC(=O)c2cc(C)ccc2C)c(C)o1 -3.94%
CC(=O)OC1c2c(ccc3ccc(=O)oc23)OC(C)(C)C1OC(=O)CC(C)C (configuration not stated) -16.8%
O=C(CCCN1CCC(C(=O)c2ccc(F)cc2)CC1)c1ccc(F)cc1 -11.7%
Cc1ccn(CCC(=O)NCC2Cc3cc(Cl)cc(-c4ccc5[nH]ccc5c4)c3O2)n1 (configuration not stated) -7.75%
CCOC(=O)C(=O)C1(C(=O)OCC)Oc2cc(OC)cc(OC)c2C(=O)C1c1ccccc1 (configuration not stated) -3.98%
CC[C@@H](C)[C@@H](CO[C@@H](Cc1ccccc1)C(=O)N[C@@H](CCS(C)(=O)=O)C(=O)OC(C)C)NC[C@@H](N)CS -3.91%
COCCn1c(=O)c(-c2cccc(C#N)c2)nc2cnc(Oc3cccc(Cl)c3)nc21 -5.61%
COC(=O)c1ccc(C(=O)NCC2Cc3cccc(-c4ccc(C(=O)OC)cn4)c3O2)cc1 (configuration not stated) -0.608%
CC(=O)N[C@@H]([C@@H](O)[C@H](O)[C@H](O)CO)[C@@H](O)CC(=O)C(=O)O -3.65%
COc1ccc(CN2CCC3(CC2)c2ccccc2[C@@H](NC(=O)c2ccsc2)[C@@H]3OC)cc1O 2.2%
Cc1cnc(SCc2ccccn2)nc1C1CCCN(C(=O)c2scc3c2CCCC3)C1 (configuration not stated) -31.4%
Cc1occc1C(=O)Nc1cccc(-c2nc(CNC(=O)c3cc(-c4ccccc4)n[nH]3)c(C)o2)c1 14.8%
COc1cccc(Nc2ncc3nc(C)c(=O)n(-c4ccccc4)c3n2)c1 -17%
